About 14,000 (4.5%) of roughly 310,000 compounds showed an effect of 50% or more. Effects have a minus sign here. The list shows a part of the results.
Target: human ether-à-go-go-related gene (hERG) potassium channel (human, UniProt Q12809)
Assay: primary screen, population patch clamp on CHO cells stably expressing hERG
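Note: peak tail current of the secondary pulse compared with the same well before compound.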

Sequence of human ether-à-go-go-related gene (hERG) potassium channel (Q12809 whole entry, looked up): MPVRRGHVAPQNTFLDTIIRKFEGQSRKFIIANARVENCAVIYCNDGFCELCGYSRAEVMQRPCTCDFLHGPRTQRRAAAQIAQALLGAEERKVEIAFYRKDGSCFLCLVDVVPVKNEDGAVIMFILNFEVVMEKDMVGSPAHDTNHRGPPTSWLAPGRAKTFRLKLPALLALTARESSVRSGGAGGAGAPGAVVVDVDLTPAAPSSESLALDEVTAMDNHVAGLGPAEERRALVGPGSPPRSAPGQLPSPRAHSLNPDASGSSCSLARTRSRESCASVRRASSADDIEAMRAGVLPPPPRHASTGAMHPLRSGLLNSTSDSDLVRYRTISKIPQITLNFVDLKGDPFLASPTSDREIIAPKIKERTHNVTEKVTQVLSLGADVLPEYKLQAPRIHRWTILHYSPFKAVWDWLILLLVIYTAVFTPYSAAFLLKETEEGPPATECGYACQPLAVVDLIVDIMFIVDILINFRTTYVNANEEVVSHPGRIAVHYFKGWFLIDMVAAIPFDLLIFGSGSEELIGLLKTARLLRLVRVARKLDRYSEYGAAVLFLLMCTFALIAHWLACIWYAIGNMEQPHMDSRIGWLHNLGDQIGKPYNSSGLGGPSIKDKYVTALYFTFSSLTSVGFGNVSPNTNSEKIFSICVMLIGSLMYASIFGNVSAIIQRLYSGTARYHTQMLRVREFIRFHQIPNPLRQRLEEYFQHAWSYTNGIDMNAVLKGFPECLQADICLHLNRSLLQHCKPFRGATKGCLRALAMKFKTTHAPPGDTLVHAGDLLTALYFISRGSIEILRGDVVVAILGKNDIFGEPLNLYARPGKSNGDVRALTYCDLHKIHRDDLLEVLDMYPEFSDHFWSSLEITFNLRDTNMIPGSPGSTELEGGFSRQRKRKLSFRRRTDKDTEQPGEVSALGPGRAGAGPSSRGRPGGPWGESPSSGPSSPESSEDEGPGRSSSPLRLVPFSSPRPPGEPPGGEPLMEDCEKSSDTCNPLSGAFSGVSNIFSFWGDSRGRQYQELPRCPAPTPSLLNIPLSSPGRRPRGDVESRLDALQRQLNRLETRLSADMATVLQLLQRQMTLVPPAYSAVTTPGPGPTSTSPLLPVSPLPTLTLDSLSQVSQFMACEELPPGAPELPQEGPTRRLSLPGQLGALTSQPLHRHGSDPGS

| Compound | hERG current change (%, negative = inhibition) at 10uM [%] |
| --- | --- |
| O=C(c1cc2cc(F)ccc2[nH]1)N(Cc1cccnc1)CC1CCCN(C2CCCCC2)C1 (stereo not shown) | -77.5 |
| CCOc1ccc(NC(=O)NC(=O)N(C)S(=O)(=O)c2ccc(C)cc2)cc1 | 9.97 |
| O=C(CNC(=O)Cn1ccc2ccccc2c1=O)NCCCN1CCN(c2cccc(Cl)c2)CC1 | -47 |
| CCOC(=O)c1[nH]c(C)c(C(=O)NCCN2CCOCC2)c1C | 7.78 |
| COc1ccc(OC)c(C(=O)CN2C(=O)NC(C)(c3ccccc3)C2=O)c1 (stereo not shown) | 7.79 |
| CC(OC(=O)CCCN1C(=O)c2ccccc2C1=O)C(=O)Nc1ncc(Cl)cc1Cl (stereo not shown) | -1.02 |
| O=C(NCCc1ccccc1)C(=O)NCC1OCCN1S(=O)(=O)c1ccccc1 (stereo not shown) | -20.3 |
| O=C(CN1CCCCCC1)N/N=C/c1cccs1 | 8.75 |
| COc1ccc(-c2oc3cccnc3c2-c2ccc(OC)nc2)cc1 | -0.15 |
| O=C1CCC(=O)N(O)CCCCCNC(=O)CCC(=O)N(O)CCCCCNC(=O)CCC(=O)N(O)CCCCCN1 | 6.14 |
| Cc1ccc2c(c1)N(C(=O)CCC(=O)N1CCN(c3cccc(C)c3C)CC1)CCO2 | -18.7 |
| CC(C)N(Cc1ccccc1)CC(O)COc1ccc(S(=O)(=O)N2CCOCC2)cc1Cl (stereo not shown) | -32.3 |
| CCOC(=O)N1CCC(C(=O)Nc2ccc(OCC)cc2)CC1 | 3.12 |
| Cc1ccc(/C=N/NC(=O)c2ccc(Cn3cc([N+](=O)[O-])cn3)o2)cc1 | -65 |
| Cc1ccc(OCCN2C(=O)S/C(=C\c3ccc(C)o3)C2=O)cc1 | 8.03 |
| Cc1cc(C)c(S(C)(=O)=O)c(S(=O)c2ccc(Cl)cc2)n1 (stereo not shown) | -5.4 |
| Cc1cc(C)nc(/N=C(\N)Nc2cccc(OCc3ccccc3)c2)n1 | -74.1 |
| CCCCN(C(=O)CNC(=O)c1ccco1)C(C(=O)NC1CCCCC1)c1ccc(OC)cc1OC (stereo not shown) | 0.632 |
| NC(=O)CC[C@@H]1NC(=O)[C@H](Cc2ccc(O)cc2)NC(=O)c2cc([N+](=O)[O-])cc(F)c2OCC[C@@H](C(N)=O)NC1=O | 20.5 |
| c1ccc2nc3c(nc2c1)[nH]c1ccccc13 | -15 |
| COc1ccc2c3c([nH]c2c1)C(C)=NCC3 | -14.8 |
| COc1cccc2cc(C(=O)NCc3ccc(F)cc3)c(=N)oc12 | 0.974 |

| Compound | hERG current change (%, negative = inhibition) at 10uM [%] |
| --- | --- |
| CC(=O)N=C1SC2CS(=O)(=O)CC2N1c1ccccc1Cl (stereo not shown) | 3.7 |
| O=C(NCc1ccco1)C(c1ccncc1)N(C(=O)Cc1cccs1)c1ccccc1 (stereo not shown) | 3.44 |
| Cc1ccc(NS(=O)(=O)c2cc(C(=O)N3CCN(CCO)CC3)ccc2C)cc1 | 5.5 |
| O=C1Nc2ccccc2C(O)(C(=O)NC2CC2)N1c1ccc(Cl)c(Cl)c1 (stereo not shown) | -2.15 |
| O=S(=O)(NCC1CCCO1)c1ccc(Br)s1 (stereo not shown) | 5.29 |
| COc1ccccc1NC(=O)CCCc1nnc2n(C)c(=O)c3sccc3n12 | 14.2 |
| C/C(=N\OC(=O)c1ccc(Cl)cc1)c1sc(-c2ccccc2)nc1C | 2.17 |
| S=C(NCCCc1ccccc1)NCc1ccccc1 | -13.4 |
| Cc1ccc(Cn2c(C(CO)Nc3nc(-c4ccc(Cl)c([N+](=O)[O-])c4)cs3)nc3ccccc32)cc1 (stereo not shown) | 7.56 |
| COc1ccc(C2N(c3ccc(OC)cc3)C(=O)C3CCCN32)cc1 (stereo not shown) | -3.81 |
| OCCC#Cc1c(-c2ccsc2)sc2ccccc12 | -4.22 |
| O=C(CSc1n[nH]c(=O)[nH]c1=O)NCC1CCCCC1 | 5.22 |
| Cc1ccccc1OCC(=O)NC(C)c1ccccc1 (stereo not shown) | 13.3 |
| COc1ccc(/C=C/CN2CCN(Cc3cccc(OC)c3)C(CCO)C2)cc1 (stereo not shown) | -51.9 |
| O=c1c([N+](=O)[O-])c(N2CCOCC2)c2ccccc2n1-c1ccccc1 | 15.9 |
| Cc1nn(C)cc1S(=O)(=O)N1CCN(Cc2cccc(Cl)c2)CC1 | -2.64 |
| CC(O)(CS(=O)(=O)c1ccc(F)cc1)C(=O)Nc1ccc(C#N)c(C(F)(F)F)c1 (stereo not shown) | -21.1 |
| COc1cc2[nH]c(=S)nc(NCc3ccc(C)cc3)c2cc1OC | 4.37 |
| COc1ccc(C(=O)N=c2sccn2C)cc1 | 62.4 |
| COc1ccc(OC(C)C(=O)N(C)Cc2nc(-c3ccc(C)cc3)no2)cc1 (stereo not shown) | -18.2 |
| CN(c1ccccc1)S(=O)(=O)c1cccc(NC(=O)CSc2nnc(C3CC3)n2C)c1 | -30.9 |
| O=C(COc1nc2ccccc2nc1N1CCOCC1)Nc1ccc(S(=O)(=O)N2CCCC2)cc1 | -8.37 |

| Compound | hERG current change (%, negative = inhibition) at 10uM [%] |
| --- | --- |
| CCOC(=O)C(NC(=O)Nc1ncccn1)(Oc1ccccc1)C(F)(F)F (stereo not shown) | -9.7 |
| O=C(c1ccccc1)N1CCN(C(=O)C23CC4CC(CC(C4)C2)C3)CC1 | 2.29 |
| CC(C(=O)Nc1ccccc1)c1ccc(-c2ccccc2)c(F)c1 (stereo not shown) | -0.245 |
| Cc1nn(S(=O)(=O)c2ccc(C(C)(C)C)cc2)c(C)c1S(=O)(=O)N1CCOCC1 | 18.1 |
| COc1ccc([N+](=O)[O-])cc1C1NN=C(c2cccc3ccccc23)S1 (stereo not shown) | -1.53 |
| CN(c1ccccc1)S(=O)(=O)c1ccc(-c2ccccc2)cc1 | 15.1 |
| O=C(COC(=O)/C=C/c1ccc(Cl)cc1)NCCN1C(=O)CSC1=O | -21.2 |
| CC(=O)OCC1OC(Nc2cccc(C)c2)C(OC(C)=O)C(OC(C)=O)C1OC(C)=O (stereo not shown) | -6.61 |
| CCOC(=O)c1c(C)[nH]c(C(=O)COC(=O)c2ccc(F)c(S(=O)(=O)N3CCOCC3)c2)c1C | 15.1 |
| CCOc1ccc(CCNC(=O)C(O)c2ccccc2)cc1 (stereo not shown) | 4.11 |
| CN(C)CCNC(=O)c1ccc(Cl)s1 | -2.03 |
| COC(=O)c1ccc(CSC2=NCCS2)cc1 | 1.43 |
| COc1ccccc1C(=O)NCCC(=O)Nc1ccc(S(=O)(=O)N2CC(C)CC(C)C2)cc1 (stereo not shown) | 10.6 |
| O=C(COc1ccc(Cl)cc1Cl)NCCCCc1ccccc1 | 16 |
| CCc1ccccc1-n1c(SCC(=O)NC)nnc1-c1cccnc1 | 12.8 |
| Cn1c(=O)c2c(nc(SCC(=O)NCc3ccco3)n2C)n(C)c1=O | -6.67 |
| COc1ccc(NS(=O)(=O)c2ccc(OCC(=O)N3CCOCC3)cc2)cc1 | 8.44 |
| Fc1ccc(-[n+]2nc(Nc3ccccc3)sc2-c2c(Cl)cccc2Cl)cc1.[Cl-] | -64 |
| Cc1ccc(-n2c(SCC(N)=O)nnc2-c2ccco2)cc1 | 3.93 |
| Cc1ccc2cccc(S(=O)(=O)N3CCN(c4cccc(Cl)c4)CC3)c2n1 | -2.91 |
| O=[N+]([O-])c1cccc(S(=O)(=O)N2CCN(S(=O)(=O)N3CCOCC3)CC2)c1 | 17.4 |
| COc1ccc2c(c1OC)CN(C)CCc1cc3c(cc1C(O)C2)OCO3 (stereo not shown) | -27.1 |

| Compound | hERG current change (%, negative = inhibition) at 10uM [%] |
| --- | --- |
| CCOc1nc2cnccc2n(CC(=O)Nc2cccc(C)c2C)c1=O | 1.36 |
| CC1CCCN(C(=O)CN2CCN(C(=O)c3ccco3)CC2)C1 (stereo not shown) | 4.68 |
| Cc1c(-c2ccn[nH]2)cc(NC(=O)c2ccc(Cl)cc2)c(=O)n1N | -4.25 |
| COc1cccc(NC(=O)CCNC(=O)c2ccccc2Cl)c1 | 5.86 |
| CCc1cc2c(NCCN3CCCCC3)ncnc2s1.Cl | -71.9 |
| CCOC(=O)c1c(C)[nH]c(C(=O)COC(=O)CSC)c1C | 4.01 |
| COc1ccc(NC(=O)CSc2nc3ccccc3n2-c2ccccc2)c([N+](=O)[O-])c1 | 6.53 |
| Cc1cccc(N2C(=O)CN(Cc3cccs3)C2=S)c1 | -1.6 |
| CC(C)CNC(=O)c1cccc(NC(=O)Cc2ccc(Cl)cc2)c1 | 1.02 |
| CC(C)(C)OC(=O)NCCCCCc1cn(CC(=O)NCCCCCCCCCCC(=O)N2CCN(C(=O)OC(C)(C)C)CC2)nn1 | 11.3 |
| C#CCOCCOCCOCCNc1nc(N2CCN(C(=O)[C@H](C(C)C)n3cc(CCO)nn3)CC2)nc(N2CCN(C(=O)[C@H](C(C)C)n3cc(CCO)nn3)CC2)n1 | 2.97 |
| CC(C)n1c(O)c(/C=C2\C=NN=C2c2ccccc2)sc1=S | 13.9 |
| CCOc1ccc(CNC23CN4CN(CN(C4)C2)C3)cc1 | -7.62 |
| O=C(CN1CCN(Cc2ccc3c(c2)OCO3)CC1)Nc1ccc(F)cc1 | -81.7 |
| Nc1nnc(CSCc2ccc(Cl)cc2Cl)s1 | 0.235 |
| COc1cccc(CN2CCN(Cc3ccccc3C(F)(F)F)CC2)c1 | -1.24 |
| Cc1ccc(S(=O)(=O)N(Cc2ccc(F)cc2)C(=O)N2CCN(C)CC2)cc1 | 7.6 |
| O=C(CCC(=O)Nc1ccc(Br)cc1)N/N=C/c1ccccc1F | 4.44 |
| COc1ccc(O)c(C2=Nc3ccccc3N=C(c3ccccc3)C2)c1 | 0.102 |
